Data taken from the supplement of paper PMC7826260.
The other results are listed elsewhere or left out. Each Rep nickase domain was tested in vitro on the same pool of single strands (1 h at 37 °C, 3 µM enzyme); the outer parts of the 90-letter strands are left off. The score is log2 (uncut reads / reads without enzyme); the lower, the more was cut; hits are not called. The scaling is to total reads; values above 0 arise when much of the pool is cut.

Assays:
Assay in all cases: uncleaved DNA left, log2 of reads against the no-enzyme library (log2 ratio); higher = less cleavage (more negative = more Rep cleavage of the k-mer); sequences stand for … in CTCGTCCG…ACCGGAGA
[1] = test system: T1, Rep nickase domain of Muscovy duck circovirus
T1 sequence (residues 1-111, tag not shown): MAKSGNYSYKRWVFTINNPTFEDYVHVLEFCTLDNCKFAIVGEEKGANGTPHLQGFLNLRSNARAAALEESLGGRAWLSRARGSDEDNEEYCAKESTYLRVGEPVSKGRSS
Procedure: (§1)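 A pool of 90-nt single-stranded DNAs with seven random bases just before the constant AC of the nick site (name = the seven bases) was cut by 3 µM recombinant His6-SUMO-tagged Rep nickase domain (300 nM DNA, 50 mM HEPES pH 8.0, 50 mM NaCl, 1 mM MnCl2, 1 h, 37 °C, three replicates). Uncut DNA was amplified and sequenced.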

[2] = test system: T2, Rep nickase domain of banana bunchy top virus
T2 sequence (residues 1-94, tag not shown): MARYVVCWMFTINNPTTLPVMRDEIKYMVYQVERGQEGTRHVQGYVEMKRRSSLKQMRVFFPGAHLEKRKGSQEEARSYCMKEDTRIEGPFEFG
Procedure: as §1

[3] = test system: T3, Rep nickase domain of cabbage leaf curl virus
T3 sequence (residues 1-116, tag not shown): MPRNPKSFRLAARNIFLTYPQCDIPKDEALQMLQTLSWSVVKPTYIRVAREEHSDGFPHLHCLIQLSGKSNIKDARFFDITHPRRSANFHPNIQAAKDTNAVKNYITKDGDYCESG
Procedure: as §1

[4] = test system: T4, Rep nickase domain of chickpea chlorotic dwarf virus
T4 sequence (residues 1-124, tag not shown): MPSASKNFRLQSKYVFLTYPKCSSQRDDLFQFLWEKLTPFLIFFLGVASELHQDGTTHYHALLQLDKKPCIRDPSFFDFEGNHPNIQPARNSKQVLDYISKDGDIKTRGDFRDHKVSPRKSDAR
Procedure: as §1

[5] = test system: T5, Rep nickase domain of faba bean necrotic yellows virus
T5 sequence (residues 1-98, tag not shown): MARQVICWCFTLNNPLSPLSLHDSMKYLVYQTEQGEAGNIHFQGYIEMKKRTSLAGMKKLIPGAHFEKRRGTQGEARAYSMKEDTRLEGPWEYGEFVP
Procedure: as §1

[6] = test system: T6, Rep nickase domain of maize striate mosaic virus
T6 sequence (residues 1-117, tag not shown): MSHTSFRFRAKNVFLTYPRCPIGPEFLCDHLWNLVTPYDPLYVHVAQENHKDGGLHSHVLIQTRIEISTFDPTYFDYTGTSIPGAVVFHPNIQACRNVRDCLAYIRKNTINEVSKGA
Procedure: as §1

[7] = test system: T7, Rep nickase domain of porcine circovirus 2
T7 sequence (residues 2-116, tag not shown): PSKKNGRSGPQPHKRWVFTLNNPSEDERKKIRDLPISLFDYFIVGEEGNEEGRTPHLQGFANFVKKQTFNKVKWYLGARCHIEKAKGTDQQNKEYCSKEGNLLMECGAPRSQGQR
Procedure: as §1

[8] = test system: T8, Rep nickase domain of tomato yellow leaf curl virus
T8 sequence (residues 1-136, tag not shown): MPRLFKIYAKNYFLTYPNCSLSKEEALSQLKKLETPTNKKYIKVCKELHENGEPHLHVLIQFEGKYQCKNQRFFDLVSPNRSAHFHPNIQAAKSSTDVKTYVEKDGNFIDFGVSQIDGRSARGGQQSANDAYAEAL
Procedure: as §1

[9] = test system: T9, Rep nickase domain of wheat dwarf virus
T9 sequence (residues 1-137, tag not shown): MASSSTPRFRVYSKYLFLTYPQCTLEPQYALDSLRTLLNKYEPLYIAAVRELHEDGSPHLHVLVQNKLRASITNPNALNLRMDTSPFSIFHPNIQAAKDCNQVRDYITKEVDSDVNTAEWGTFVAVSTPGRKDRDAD
Procedure: as §1

| Sequence | uncleaved DNA left (log2) [1] | uncleaved DNA left (log2) [2] | uncleaved DNA left (log2) [3] | uncleaved DNA left (log2) [4] | uncleaved DNA left (log2) [5] | uncleaved DNA left (log2) [6] | uncleaved DNA left (log2) [7] | uncleaved DNA left (log2) [8] | uncleaved DNA left (log2) [9] |
| --- | --- | --- | --- | --- | --- | --- | --- | --- | --- |
| GGTGGAA | 0.0921 | 0.0132 | 0.513 | 1.24 | 0.125 | 1.93 | 0.154 | -0.0137 | 0.208 |
| CCCACTG | -0.00718 | 0.00717 | -0.18 | 0.207 | -0.108 | 0.99 | 0.00989 | -0.182 | 0.0224 |
| GCGAATT | 0.0903 | 0.0521 | 0.127 | 0.36 | -0.137 | 1.25 | -0.239 | 0.0853 | 0.118 |
| CAAGGCC | 0.0367 | -0.0356 | -0.00605 | 0.201 | -0.0403 | -0.244 | -0.0302 | 0.00829 | 0.0223 |
| CCGCCGG | 0.115 | 0.0307 | 0.515 | 1.02 | 0.134 | 1.33 | 0.115 | -0.0362 | -0.114 |
| CACGCTT | 0.0401 | -0.00615 | -0.526 | -2.38 | -0.0559 | -0.216 | -0.947 | -0.0203 | -0.0944 |
| TTCAGGG | -0.0687 | 0.000554 | 0.288 | 0.609 | 0.148 | 0.425 | 0.206 | 0.0255 | -0.0404 |
| CCTTCCA | -0.253 | 0.00247 | -0.0644 | -1.4 | -0.023 | -0.633 | -0.221 | -0.0673 | -0.00837 |
| GTGTAGT | -0.201 | 0.00382 | 0.42 | 0.803 | 0.0925 | 1.14 | -2.27 | 0.278 | 0.183 |
| CGAGCTG | -0.104 | 0.0162 | 0.0851 | 0.794 | -0.0329 | 1.59 | -0.092 | -0.216 | 0.00886 |
| GACAACA | -0.0426 | -0.0229 | 0.275 | -1.33 | 0.0769 | 0.718 | 0.0469 | 0.0525 | -0.0126 |
| CTTAGGC | 0.0265 | 0.12 | 0.219 | 0.379 | 0.0778 | -0.477 | 0.0678 | 0.0219 | 0.0578 |
| CGATCCG | -0.168 | -0.0595 | -0.718 | -0.378 | -0.0432 | -0.945 | 0.104 | -0.0242 | -0.141 |
| GAATCTT | -2.96 | -0.402 | -3.14 | -2.85 | -0.0299 | -1.97 | -3.28 | -0.0792 | -3.05 |
| TCTAGCA | 0.00605 | 0.0016 | -0.274 | -0.883 | 0.106 | -0.921 | -0.0269 | 0.131 | 0.0407 |
| GGGCAGT | 0.0238 | 0.121 | 0.772 | 1.89 | -0.0626 | 2.24 | 0.132 | 0.0235 | 0.113 |
| AGTAACC | 0.0263 | 0.103 | -0.0539 | -0.124 | 0.0152 | 0.292 | -0.56 | 0.0788 | 0.0309 |
| AGTCAAG | -0.00953 | 0.0168 | -0.671 | -0.493 | -0.00179 | -1.02 | 0.193 | 0.045 | -0.108 |
| ATCCCGC | 0.0359 | -0.03 | -0.546 | -0.535 | -0.0947 | -0.851 | 0.0503 | -0.0684 | -0.102 |
| CGACGGC | -0.0608 | -0.0329 | 0.0549 | 0.508 | -0.019 | 1.19 | 0.102 | -0.0671 | -0.0262 |
| TAGCTGT | 0.0876 | 0.0902 | 0.279 | 1.25 | -0.0301 | 1.52 | -0.321 | -0.14 | 0.0789 |
| GCTCTCA | -0.111 | 0.0764 | 0.179 | -0.0468 | 0.0572 | 0.253 | -0.0117 | 0.0609 | 0.0665 |
| GGACTCC | -0.131 | 0.037 | 0.606 | 1.51 | -0.12 | 1.94 | 0.0355 | -0.0332 | 0.0527 |
| GGACTCG | 0.132 | -0.00715 | -0.029 | 0.281 | 0.027 | 0.148 | 0.0749 | 0.0507 | -0.000487 |
| CAACTCA | -0.0564 | -0.0428 | -0.293 | -2.6 | -0.0566 | -0.605 | -0.181 | -0.043 | -0.109 |
| TAGGCCC | -0.123 | -0.0153 | 0.102 | 0.461 | -0.0778 | 0.593 | -0.101 | -0.00247 | -0.0248 |
| TGCAATA | 0.0224 | -0.00858 | -0.091 | -0.91 | 0.0953 | -0.489 | -0.175 | 0.0404 | -0.0377 |
| ATATACG | -0.0118 | -0.0127 | -0.855 | 0.101 | 0.0707 | -1.01 | 0.219 | 0.0496 | -0.0713 |
| GCATGGG | 0.0476 | -0.0788 | -0.657 | -0.558 | 0.0038 | -0.912 | 0.13 | 0.0508 | -0.187 |
| TAGCTTT | 0.14 | -0.349 | -2.05 | -2.68 | -0.0946 | -0.552 | -3.85 | 0.148 | -0.309 |
